Test results reported in the supplement of paper PMC12645437, “Orthogonal IMiD-Degron Pairs Induce Selective Protein Degradation in Cells” (ACS Chemical Biology, 2025).
Some of the results follow.

Molecular target: no compound (DMSO)
Assay: log2 fold change of degron read counts, EGFP-low vs EGFP+ sorted cells; higher = lower degron-EGFP level without compound (poor expression or instability)
Details: compound: DMSO control; 18 h
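Further: jurkat cells carrying a lentiviral library of mutant zinc finger degrons fused to EGFP plus mCherry, mCherry+ cells FACS sorted, degron abundance counted by next-generation sequencing.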

Row | Sequence | log2 fold change of degron read counts
1 | FECPICGHLFTQKGNLLRHIKL | -0.777
2 | FDCDVCGASFTQKGNLLRHIKL | -2.42
3 | FVCPICGRWFTQKGNLLRHIKL | 0.503
4 | FWCEICGHRFTQKGNLLRHIKL | -0.431
5 | LVCNQCGFCCTQKGNLLRHIKL | 0.156
6 | LNCPICGFCCTQKGNLLRHIKL | 0.829
7 | FKCNQCGAHFTQKGNLLRHIKL | -0.62
8 | LDCPICGFACTQKGNLLRHIKL | 0.439
9 | FMCEICGASFTQKGNLLRHIKL | -0.833
10 | FWCEVCGARFTQKGNLLRHIKL | -0.493
11 | FMCEICGHVFTQKGNLLRHIKL | -0.666
12 | FWCNQCGHGFTQKGNLLRHIKL | 0.899
13 | LKCEICGFTCTQKGNLLRHIKL | -0.837
14 | LKCEICGFQCTQKGNLLRHIKL | -0.541
15 | FWCDICGASFTQKGNLLRHIKL | -1.72
16 | FKCPICGRQFTQKGNLLRHIKL | -0.589
17 | FNCEICGHRFTQKGNLLRHIKL | -0.805
18 | LYCNQCGFCCTQKGNLLRHIKL | 1.17
19 | LHCNQCGFGCTQKGNLLRHIKL | 1.06
20 | FNCPICGRRFTQKGNLLRHIKL | -0.312
21 | LCCEICGFQCTQKGNLLRHIKL | -1.3
22 | LQCNQCGFMCTQKGNLLRHIKL | 0.341
23 | FMCNQCGALFTQKGNLLRHIKL | 0.226
24 | FYCNQCGAFFTQKGNLLRHIKL | 0.703
25 | FCCEICGRFFTQKGNLLRHIKL | -0.424

Row | Sequence | log2 fold change of degron read counts
26 | FCCNVCGAGFTQKGNLLRHIKL | -0.224
27 | FVCNQCGHMFTQKGNLLRHIKL | -0.608
28 | FWCEICGHSFTQKGNLLRHIKL | -0.679
29 | FGCPVCGADFTQKGNLLRHIKL | -0.618
30 | FCCEICGRKFTQKGNLLRHIKL | -3.08
31 | FRCNVCGAAFTQKGNLLRHIKL | 0.21
32 | FLCEICGHRFTQKGNLLRHIKL | -1.81
33 | FACPICGRMFTQKGNLLRHIKL | 0.0703
34 | FYCPICGRMFTQKGNLLRHIKL | -3.09
35 | FQCEICGHQFTQKGNLLRHIKL | -2.15
36 | FLCEICGRVFTQKGNLLRHIKL | -1.86
37 | FCCNQCGHMFTQKGNLLRHIKL | -0.475
38 | FICEICGRAFTQKGNLLRHIKL | -2.49
39 | FMCPICGAEFTQKGNLLRHIKL | -0.357
40 | FSCNQCGRLFTQKGNLLRHIKL | -0.491
41 | FSCEICGRYFTQKGNLLRHIKL | -0.526
42 | FLCNVCGAWFTQKGNLLRHIKL | 0.661
43 | FHCEQCGASFTQKGNLLRHIKL | -2.33
44 | LFCNQCGFECTQKGNLLRHIKL | 0.457
45 | LMCPICGFGCTQKGNLLRHIKL | 1.36
46 | FFCPICGREFTQKGNLLRHIKL | -0.322
47 | LTCEICGFRCTQKGNLLRHIKL | -0.245
48 | FRCPVCGAEFTQKGNLLRHIKL | -0.985
49 | FWCEICGHMFTQKGNLLRHIKL | 0.143
50 | LLCPICGFSCTQKGNLLRHIKL | 0.462
